# According to PubChem BioAssay (NCI):
# Where a structure was tested more than once in an assay, its records may differ in their call.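 Each cell line was grown in a 96-well plate and treated with one concentration of compound for 48 hours. Values below 10 were considered active.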 For part of its entries the source gives two or more results. This list holds those alone. An entry can have further records. These are repeated runs of one drug, at its own concentration, as given; one value stands for one run. Counts like (3×) count equal records among those shown.
# System: TK-10 renal
# Assay: NCI-60 one-dose screen, 48 h (100 = growth as untreated, 0 = no growth, -100 = all killed)
structure (smiles),measurement,setting,value
COc1cccc2c1C(=O)c1c(O)c3c(c(O)c1C2=O)C[C@@](O)(C(=O)CO)C[C@@H]3OC1CC(N)C(O)C(C)O1 (stereo not given in full),growth,"0.25 µM, runs of 2018","inactive: 55.1 (2×), 57.1, 50.3 (2×), 46, 52.2, 52.1, 48.6, 43, 50.5, 52, 45.7, 55.9, 55.6, 48.5, 58.1, 41.8, 74.7, 64.4, 66.1, 61.1, 61.3, 61.7 (3×), 61.9, 72.4, 67.8, 71.5, 60.6, 52.8, 76.4, 62.2, 59.3, 51.5, 59.7, 62.9 (2×), 60.2, 51.8, 58.4, 66.6, 64.2, 66.5 (2×), 66.8, 66.3, 70.6, 65.6, 76.3, 78.3, 72.2, 70.9, 47.6, 43.6, 63.7, 52.9, 48.3%"
same,growth,"0.25 µM, runs of 2019","inactive: 67.6, 57.7, 57.2, 58, 66.8, 66.9, 67.3, 68.4, 69.5, 64.2, 54.9, 46.6, 55.1, 61.7, 58.7, 65.6, 56.9 (2×), 64.9, 60.3, 63, 59.1 (2×), 59.7, 56.8, 66.6, 80.9, 71.4, 75.2, 54.7, 54.6, 57, 53.9, 50.3, 54.8 (2×), 47.6, 47.4, 55.5, 58.3, 46.2, 43.1, 44.7, 33.8, 65.8, 56, 61.6, 49.3, 57.9, 61%"
same,growth,"0.25 µM, runs of 2020","inactive: 57.3, 56.5, 69.7, 71.7, 70.3, 66.5, 59.7, 55.9, 63.3, 57, 59.9, 60.7, 56.1, 53.5, 64.2, 61.1, 73.3, 66, 70.2, 67.3, 65.1, 65.6, 67.7, 68.6, 66.2, 64.5%"
same,growth,"0.25 µM, runs of 2021","inactive: 63.1 (2×), 67, 64.8, 76, 77.3, 68.9, 70.3, 66.4, 66.2, 67.8, 75.3, 66, 56.8, 57.1, 59.1 (2×), 65.6 (2×), 65.5, 66.6, 66.9, 60.9, 56.7, 57.8, 57.6, 52.6, 59.7, 60.4, 62, 64.7, 58.8, 56.2, 56.9, 55.8, 48.8, 56.4, 59, 62.4, 70.5, 58.2, 57, 50.1, 57.5, 67.7, 55.2, 61.1, 72.1, 62.7, 60.6, 68.4, 64.9, 73.6%"
same,growth,"0.25 µM, runs of 2022","active: 8.48%, 5.49% and inactive: 19.1, 74.5, 77, 70.6, 44.2, 70, 72.1, 88, 65.9, 79.3, 79.8, 72.7, 74.1, 67.2, 63.1, 59, 75.2, 89.4, 69.3, 84.2, 87.4, 68.1, 74.2, 69.1, 66.8, 61.1%"
same,growth,"25 µM, runs of 1991","inactive: 15.5, 16.6, 14.8, 15.4, 13.6, 36.8, 10.9, 20.6, 25.5% and active: -1.08, -17.4, -15.3, -13.2, 6.97, -26, -3.36%"
same,growth,"25 µM, runs of 1992","inactive: 25.2, 11.9, 12.8, 14.6, 22.4, 13.1, 15.8, 18, 10.1, 22.7, 15.6, 10.7, 29.2, 22.3, 19.3, 13, 16.6, 11.4, 12.1, 12.4, 11.2, 19.7, 15.3, 17.4, 18.5, 23.3, 15.9, 28.1, 12.2, 19.9% and active: 6.76, -6.8, 5.36, -5.89, 1.78, -12.5, -11.7 (2×), -2.48, -14.5, -8.73, -5.68, 7.91, -17.7, -9.33, -2.94, -15.9, -28.6, -10.4 (2×), -14.1, -10.9, -10.5, 4.78, 2.66, 2.43, -4.96, 1.51, -11.9, -2.71, 2.75, -8.94, -1.1, 5.62, -5.32, 4.38, 4.55, 5.13, 2.95, 0.235, -12.3, -9.74, 8.49, -12, -32.5, -2.93, 5.81, -4.49, 1.65, -8.51, -14.7, -0.556, 8.74, 1.33, -16.3, 0.924, -1.47, -6.31, -0.867, -10.8, -8.36, -4.28, 9.39, 7.39, 0.396, 5.08, -16.6, -7.59, -18.4, -0.703, -13.5, 5.79, -13, 8.26, -11, -12.6, -2.62, -18, 4.48, -26.3, -72, 0.598, 2.48, 3.39, -12.8, -3.08, -4.88, -13.6, 6.74, 5.47%"
same,growth,"25 µM, runs of 1993","active: -2.75, -12.9, -19.2, -2.57, -8.21, 7.09, 4.07, 2.6, -19.7, 6.51, -35.6, -0.836, 7.57, 7.85, -0.369, -17.3, -2, -9.28, 7.88, -11.1, 6.02, -13.8, -0.489, -21.7, -6.23, 7.25, -40.5, 3.57, -37, -6.12, 6.12, -9.54, -10.5, 7.84, 10, -13.9, -19.3, 0.551, -16.9, -6.49, -31.6, -9.23% and inactive: 10.3, 13.3, 22.9, 10.2, 14.8, 13.1%"
same,growth,"25 µM, runs of 1994","inactive: 28.6, 98.4, 10.3, 12, 29.3, 47.4, 22.4% and active: -31.2, -37.8, -8.1, -7.7, -37.1, -35.4, 7.5, -27.6, -26.8, 2.17, -21.3, 5.2, -5.98, -34.1, -4.63, -18.2, -18.9, -12.1, -0.188, -1.18, -11.7, 3.62, 6.04, 0.65, -12.6, 1.23%"
same,growth,"25 µM, runs of 1995","active: -3.17, 6.97, 9.34, -14.1, 4.11, -5.82, -7.23, 4.34, -22.4 (2×), -1.57, 5.07, -18.7, -21.6, -14.9, 0.954, -31.8, -6.55, -18.9, -13 (2×), -4.84, -9.22, -2.64, 4.87, -34.9, -15.2, -19.9, 4.3, -4.86, -3.11, 0.119, -2.92, -5.54, -2.16, 1.7 (2×), -24.6, -5.6, -1.98, -8.64, -79.9% and inactive: 13.6, 22.2, 14.6, 37.9, 13.8, 11.9%"
same,growth,"25 µM, runs of 1996","active: -6.44, -7.23, -22.6 (2×), 5.68, 3.75, 3.89, -40.4, -16.3, -34.4, -8.98, -21.3, -4.83, -14.6, -0.582, -2.22, -36.6, -49.7, -17.9, -50, -32.1, -10.2, 6.44, -43.5 (2×), 9.39, -2.97, -29.4, -38.6, -13.5 (2×), 6, -3.25, 6.7, -19.2, 7.66, -2.36, -32.5, 2.78, -28.1, -25, -20.4, 9.83, 1.27, 9.6, 7.88, -0.304, -5.46, 8.54, -48.5, -37.5, 0.576, 1.63, 7.85, 1.28, -2.35, -21.2, 7.58, -0.936, -5.19, -9.48, -18.4, 0.325, -7.54, -49.3, -24.6, -17.5, -9.69, -0.568, -10.3, -7.39, -3.51, -85.9, -23.1, -3.18, -7.71, -4.69, -27.8, -5.03, -11.6, 5.76, -0.235, -12.3, -13.6, -32.2, 6.54, -12.1, -2.96, -34.7, -7.28, -25.8, -24.8, -18.3% and inactive: 14, 100, 15.5, 11.8, 13.9, 27.2, 115, 10.4, 21.2, 11.1, 37.2, 10.1, 23, 21.4, 14.8, 19.9%"
same,growth,"25 µM, runs of 1997","active: 9.23, -29.2, 1.74, -10.5, -12.5, 1.8, 4.65, -18.4, -19.3, 1.16, -4.14, -7.63, 5.27, -18.8, 5.86, -29.3, -25.9, -9.35, 1.79, -18.3, -5.52, -20.6, -18.6, 3.13, -17.2, 4.73, -16.4, -38.3, 4.1, -13.5, -23.6, -2.26, -3.94, 1.05, -8.24, 0.719, -7.12, -27.7, -39.1, -60.5, 1.96, -7.18, 9.04, -21.5, 6.71, 3.72% and inactive: 18, 10.9, 10.4, 13.4, 13, 13.7, 12.6, 66.7, 14.4, 99.8, 86.4%"
same,growth,"25 µM, runs of 1998","active: 6.84, -6.49, 3.28 (2×), 2.08, 2.14, -29.6, -27, -25 (2×), -4.35, -4.32, 6.57, -27.9, 1.03, -14.2, -2.26, 3.18, -21.9, -11.9, 7.17, 7.02, 0, -3.43, -15.9, 6.64, -1.61, -28.6, 0.772, -18.7, 5.99, -35.9, -13, -7.45, -36.7, -5.03, -4.27, -2.4, -16.3, 7.1, -8.88, -8.41, -2.18, -2.27, 7.22% and inactive: 12.5, 18.6, 11.6, 15.5, 10.2, 14, 14.7, 14.1, 59.8, 15.2, 16.7, 12, 34, 28.5, 29.4, 36.9, 30.2, 29, 24, 11.3, 28.4, 23.3, 21.1, 12.3, 19.2, 15, 13%"
same,growth,"25 µM, runs of 1999","inactive: 13.2, 25.5, 18.7, 10.5, 40.2, 11.8% and active: -7.26, -2.36, 9.15, -8.11, 3.69, 1.59, -45.5, 2.51, -46, -12.2, -5.26, -12.5, 0.884, 2.55, -34.1, -37.5, -15.6, -68.3%"
same,growth,"25 µM, runs of 2000","active: -75.6, -100, 2.11, -47.8%"
